Drawing on PMC7363125, this text covers binding for one molecule.

Experiment in all cases: pull-down; 5 ug GST-PLEKHA7 WW bait (E. coli) coupled to GSH-Sepharose beads, washed, incubated 1 h at 4 °C with normalized HEK cell lysate holding PDZD11-HA or CFP-HA; immunoblot with anti-HA; only the target purified
On the technique in general: A western blot detects proteins with antibodies after separation by electrophoresis.

Assay [1] has as its target T1, GST-PLEKHA7 WW1 + WW2 domain (1-162), mutation within the WW2 domain at position 71 (human) (UniProt Q6IQ23).
T1 sequence: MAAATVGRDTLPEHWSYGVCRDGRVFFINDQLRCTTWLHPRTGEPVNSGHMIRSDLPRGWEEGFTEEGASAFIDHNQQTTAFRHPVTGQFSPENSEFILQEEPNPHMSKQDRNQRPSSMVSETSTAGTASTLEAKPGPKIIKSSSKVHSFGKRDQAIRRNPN

For assay [2], the target named is T2, GST-PLEKHA7 WW1 domain (residues 1-56) T35A (human) (UniProt Q6IQ23).
T2 sequence: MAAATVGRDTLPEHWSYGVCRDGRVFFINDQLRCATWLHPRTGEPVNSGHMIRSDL

Assay [3] addresses T3, GST-PLEKHA7 WW1 domain (residues 1-56) W15A (human) (UniProt Q6IQ23).
T3 sequence: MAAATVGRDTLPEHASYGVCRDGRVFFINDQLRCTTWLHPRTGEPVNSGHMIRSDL

Assay [4] concerns the target T4, GST-PLEKHA7 WW1 + WW2 domain (1-162), mutation within the WW2 domain at position 73 (human) (UniProt Q6IQ23).
T4 sequence: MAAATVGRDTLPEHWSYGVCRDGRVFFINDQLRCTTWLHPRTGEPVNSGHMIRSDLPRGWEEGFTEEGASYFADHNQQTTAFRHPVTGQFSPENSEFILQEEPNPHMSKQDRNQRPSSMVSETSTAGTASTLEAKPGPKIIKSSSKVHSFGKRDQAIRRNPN

Assay [5] deals with T5, GST-PLEKHA7 WW1 + WW2 domain (1-162) T35A (human) (UniProt Q6IQ23).
T5 sequence: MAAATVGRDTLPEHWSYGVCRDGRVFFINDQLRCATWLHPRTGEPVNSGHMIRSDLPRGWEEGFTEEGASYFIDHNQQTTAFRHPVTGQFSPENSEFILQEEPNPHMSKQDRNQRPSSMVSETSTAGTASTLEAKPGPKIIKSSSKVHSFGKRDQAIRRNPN

The target of assay [6] is T6, GST-PLEKHA7 WW1 + WW2 domain (1-162) D30A + D74A (human) (UniProt Q6IQ23).
T6 sequence: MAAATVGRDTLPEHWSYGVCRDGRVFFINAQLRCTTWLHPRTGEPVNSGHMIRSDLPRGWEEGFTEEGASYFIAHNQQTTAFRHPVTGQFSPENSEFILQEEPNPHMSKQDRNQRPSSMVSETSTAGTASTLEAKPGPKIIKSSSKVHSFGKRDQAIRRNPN

For assay [7], the target named is T7, GST-PLEKHA7 WW1 + WW2 domain (1-162) D22A (human) (UniProt Q6IQ23).
T7 sequence: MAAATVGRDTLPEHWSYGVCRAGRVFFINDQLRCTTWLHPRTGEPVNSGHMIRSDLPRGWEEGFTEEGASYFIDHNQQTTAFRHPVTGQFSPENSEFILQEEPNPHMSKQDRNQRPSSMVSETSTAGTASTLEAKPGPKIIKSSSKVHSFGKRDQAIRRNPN

For assay [8], the target named is T8, GST-PLEKHA7 WW1 + WW2 domain (1-162) T35A + D74A (human) (UniProt Q6IQ23).
T8 sequence: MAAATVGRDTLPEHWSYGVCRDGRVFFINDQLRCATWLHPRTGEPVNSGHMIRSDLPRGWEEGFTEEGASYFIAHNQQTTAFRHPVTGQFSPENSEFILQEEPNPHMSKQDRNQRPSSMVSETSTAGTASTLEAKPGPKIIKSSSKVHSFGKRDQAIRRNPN

Assay [9] has as its target T9, GST-PLEKHA7 WW1 + WW2 domain (1-162), mutation within the WW2 domain at position 65 (human) (UniProt Q6IQ23).
T9 sequence: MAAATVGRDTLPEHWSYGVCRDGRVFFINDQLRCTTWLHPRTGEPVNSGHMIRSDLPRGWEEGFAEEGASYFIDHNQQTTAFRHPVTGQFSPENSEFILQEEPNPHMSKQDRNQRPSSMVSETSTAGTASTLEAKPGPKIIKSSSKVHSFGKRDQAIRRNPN

No constants are given. Whether binding was seen depends on the method and setting. Binding seen in cells or lysates may run through a third protein. Some entries that bind do so weakly or less than the wild type. Sequences can lack the tags named with a protein.

B1: PDZD11-HA (human) full-length (protein, UniProt Q5EBL8 1-140)
chain: MDSRIPYDDYPVVFLPAYENPPAWIPPHERVHHPDYNNELTQFLPRTITLKKPPGAQLGFNIRGGKASQLGIFISKVIPDSDAHRAGLQEGDQVLAVNDVDFQDIEHSKAVEILKTAREISMRVRFFPYNYHRQKERTVH
As to B1, the binding result is “binds” in assay [1]; “no binding” in assay [2]; “no binding” in assay [3]; “binds” in [4]; “binds” in assay [5]; “binds” in assay [6]. Also, the binding result in [7], in assay [8] and in assay [9] was “binds” in each case.
